This passage reports activation results from PubChem BioAssay AID1346428 (National Center for Advancing Translational Sciences (NCATS), 2018).

Values joined by “and” are separate entries in the source; they are usually repeats but may differ in a detail not shown here. Identical values can stand only once. About 1,200 (2.5%) of roughly 48,000 compounds were called active. Another 2% or so got no clear call; they are omitted.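 The calls were made as follows: active = activation of at least 60% and not above a set upper limit (about 1 call in 100 departs from these limits); inconclusive = activation of 40% to 60%, or above that upper limit; inactive = activation under 40%.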 This is one part of the list.

The assay deals with Probable G-protein coupled receptor 32 (Homo sapiens) (UniProt O75388). Briefly: qHTS for Agonists of Human Resolvin D1 Receptor DRV1. Particulars: CHO-K1 GPR32 beta-arrestin PathHunter luminescence, 90 min; at 76.9 µM; stronger effect = higher value; zero percent set by DMSO-only wells. The text has this: Endogenous resolution of inflammation is known to be transduced through various GPCRs and their natural mediators of lipid nature. Resolvin D1 (RvD1) is one of the active players in resolution of acute inflammation through regulation of anti-inflammatory pathways; it is known to enhance phagocytosis of human macrophages, limits neutrophils infiltration, etc. […] The search for GPR32-activating small molecules with anti-inflammatory effects similar to its natural omega-3 derivative ligand in order to use them as research tools for further studies of inflammation and its resolution was the goal of this screening project. For primary screening assay, we used CHO-K1 GPR32 beta-arrestin cell line (DiscoveRx, #93-0321C2A) and the PathHunter(R) beta-Arrestin Assay (DiscoveRx) which measures recruitment of beta-arrestin to the GPR32 and generates chemiluminescent signal. These engineered cells stably transfected with GPR32 co-express GPR32-fused small 42-amino acid fragment of beta-Gal called ProLinktrade mark, and […] -tagged beta-Arrestin fusion protein. When GPR32 is activated by a ligand, it stimulates binding of beta -Arrestin to ProLink-tagged GPR32, and two parts of beta-Gal complement forming a functional enzyme. Upon substrate (PathHunter(R) Detection reagent) addition, beta-Gal hydrolyzes it and generates a chemiluminescent signal.
Chain of UniProt O75388 (O75388 whole entry, looked up): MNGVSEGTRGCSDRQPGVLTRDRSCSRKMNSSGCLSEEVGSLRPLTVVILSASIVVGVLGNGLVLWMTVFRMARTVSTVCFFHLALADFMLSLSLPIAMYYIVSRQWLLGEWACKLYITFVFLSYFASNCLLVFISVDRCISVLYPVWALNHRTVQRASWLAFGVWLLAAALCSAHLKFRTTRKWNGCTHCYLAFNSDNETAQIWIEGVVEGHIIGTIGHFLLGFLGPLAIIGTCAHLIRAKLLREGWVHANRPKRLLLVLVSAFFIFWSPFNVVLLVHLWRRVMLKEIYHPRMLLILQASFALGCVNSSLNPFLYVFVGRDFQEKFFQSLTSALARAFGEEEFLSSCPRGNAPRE
The cells were thawed and plated in thawing media containing F-12 HAM (Invitrogen, #11765-054), 10% FBS (Invitrogen, #10082), 1x Glutamine, and 1x Pen/Strep onto the 175-mm flask for 24 hours. Then, thawing media was replaced with Growth media which contains 800microg/mL Geneticin (Invitrogen, #10131) and 300microg/mL Hygromycin B (Invitrogen, #10687) in addition to described above. For the assay, the cells were harvested at ~80% confluent stage with Cell Dissociation buffer (Gibco, #13151), and seeded at 2,500 cells/ 3microL/well in assay media (PathHunter(R) Cell Plating Reagent, DiscoverX, #93-0563R1B) using MultiDrop Combi dispenser (Thermo Scientific, Logan, UT) onto white solid bottom tissue culture-treated 1536-well plates (Greiner # 789173-F) and allowed to attach overnight at 37 degrees C, 95% humidity, 5% CO2, . Next, 23nL/well of compound solutions in DMSO were added with a Pin Tool (Kalypsis, San Diego, CA) to the assay plates. As the basal control (EC0), 23 nL/well of DMSO was used on each plate. The cells were incubated in the presence of compounds or DMSO for 90 minutes at 37 degrees C, 5% CO2. Subsequently, 1.5microL/well of PathHunter(R) Detection Reagent prepared per the manufacturer's instructions was added to the assay plates with BioRAPTR FRDtrade mark dispenser (Beckman Coulter, San Francisco, CA) and incubated for 1 hour at ambient temperature prior to the measurement of the luminescent signal on ViewLux(R) uHTS Microplate Imager (Perkin Elmer, Waltham, MA).
Take `CCOC(=O)C1CCCN(C(=O)c2cccc(NC(=O)c3nsc4ccccc34)c2)C1` (centres undefined): the activation is inactive: -7.39%.
The figure for `Cc1ccc(NC(=O)CCNS(=O)(=O)c2ccc(Br)s2)cc1` is inactive: 32%.
The figure for `CNCCCC1c2ccccc2C=Cc2ccccc21` is inactive: 23.5% and inactive: -2.89%; for `O=C(Nc1ccccc1Cl)c1cc(S(=O)(=O)N2CCC3(CC2)OCCO3)ccc1F` it is inactive: -10.5%.
For `COc1cc(C2C(=O)N(C3CCCCCC3)CC(=O)N2CCC2=CCCCC2)ccc1OC(C)C` (centres undefined) the value was inactive: -12%.
In the case of `O=C(NCCS(=O)(=O)N1CCN(c2ccccc2F)CC1)C(c1ccccc1)c1ccccc1`, the activation was inactive: -19.7%.
On to `CCn1cc2nc(SCc3ccccc3Cl)n(CCc3ccccc3)c(=O)c2n1`, for which the activation was inactive: 44.3%.
Turning to `CCOc1ccc(N(CC)S(=O)(=O)N2CCCC(C(=O)Nc3ccc(OC)c(OC)c3)C2)cc1` (centres undefined), the activation is inactive: -7.81%.
For `Cc1ccc(-c2nc(NC(=O)CSc3ncnc4sc5c(c34)CCC(C)C5)ns2)cc1` (centres undefined) the value was inactive: -5.58%.
As to `COc1ccc2c(c1)c(=O)c(S(=O)(=O)c1ccc(Cl)cc1)cn2C`, the activation was inactive: -9.38%.
With `Cc1ccccc1CNC(=O)C1CCN(c2nnc(-n3c(C)ccc3C)s2)CC1`, the activation is inactive: -24%.
`CCCCCCC[N+](CC)(CC)CCCCc1ccc(Cl)cc1`: the activation is active: 86.6%.
For `Cc1cccc(NC(=O)N2CCC(CN3CCC(C)CC3)CC2)c1C` the value was inactive: -0.0741%.
As for `CC(=O)Nc1c(C)nn(-c2ccccc2)c1N1CCC(C(=O)Nc2ccc(F)cc2Cl)CC1`, the activation was inactive: -9.66%.
For `Cc1ccc2c(c1)C(c1ccccc1)N(C(=O)c1ccccc1F)CC(=O)N2` (centres undefined) the value was inactive: 11.6%.
The figure for `CCc1cccc(CC)c1NC(=O)C(CC)n1nc(C)n2c(cc3cc(C)ccc32)c1=O` (centres undefined) is inactive: 0.249%; for `CCCn1c(SCc2nc(-c3cc(OC)ccc3OC)no2)nnc1-c1ccc(Cl)cc1` it is inactive: -14.1%.
For the compound `CCOC(=O)c1cccc(NC(=O)c2cc3cc4ccc(C)cc4nc3o2)c1`, the activation is inactive: 13.2%.
The figure for `Cc1ccc(-n2ncc(C(=O)Nc3ccc4c(c3)OCCO4)c2C2CCN(C(=O)OC(C)(C)C)CC2)cc1` is inactive: -18.8%; for `Cc1ccccc1-c1noc(-c2cc3ccccc3oc2=O)n1` it is inactive: -16.5%.
For `COc1ccc(Br)cc1CNC(=O)CSc1cc(=O)n(C)c2ccccc12` the value was inactive: -8.93%; for `CCN1CCN(c2csc3ccc(C)cc3c2=O)CC1`, inactive: -32%; for `CC1CCN(S(=O)(=O)c2ccc3c(c2)oc(=O)n3CC(=O)NC(C)c2ccccc2)CC1` (centres undefined), inactive: 30.9%.
The figure for `CCCc1ccc(OC(C)C(=O)Nc2sc3c(c2C(=O)OC)CCCCC3)cc1` (centres undefined) is inactive: 7.34%; for `Cc1ccc(-c2nc(CS(=O)(=O)CC(=O)N3CCN(c4cccc(C)c4C)CC3)c(C)o2)cc1` it is inactive: -2.49%; for `Cn1c(SCC(=O)N2CCCc3ccccc32)ncc(C(=O)Nc2ccc(F)cc2)c1=O` it is inactive: -3.42%.
On to `CCOC(=O)c1cnc2ccc(OC)cc2c1NCCc1ccc(OC)c(OC)c1`, for which the activation is inactive: -20.9%.
For `CSc1nc(Nc2cccc(C)c2)c(C#N)c(-c2ccccc2)n1` the value was inactive: 3.61%; for `CNc1c(NC(=O)c2cc(OC)cc(OC)c2)c(=O)oc2ccccc12`, inactive: 9.28%; for `O=C(O)CC(O)C(=O)O` (centres undefined), inactive: 23.4%.
For `Cc1cccc(CNC(=O)c2cccc(NC(=O)N3CCSc4ncccc43)c2)c1` the value was inactive: -1.03%; for `CCCCNC(=O)c1nn(-c2ccc(C)cc2)c(=O)c2c1c1ccccc1n2C`, inactive: 9.57%.
For `Cc1ccc2[nH]c(=O)c3cc(C(=O)N(C)c4ccc(Br)cc4)sc3c2c1` the value was inactive: -7.84%; for `Cc1nnc(NC(=O)CSc2nc3c([nH]c4ccccc43)c(=O)n2-c2ccc(Cl)cc2)s1`, inactive: 40.4%; for `Cc1cc(C)cc(NC(=O)c2cc(S(=O)(=O)NCCC3=CCCCC3)ccc2F)c1`, inactive: -18%.
Turning to `Cc1ccc(NC(=O)c2cc(S(=O)(=O)N3CCCCC3)c[nH]2)cc1N(C)C`, the activation is inactive: 0.797%.
As to `CC(=O)Nc1cc(C(=O)NCc2ccccc2Cl)ccc1Sc1ccc(F)cc1`, the activation is inactive: -13.8%.
The figure for `Cc1cccc(C(=O)Nc2ccc3oc(-c4cccc5c(Br)cccc45)nc3c2)c1` is inactive: 15.6%; for `COc1ccc(CCNCc2c(C(=O)O)c(C)n(Cc3c(F)cccc3Cl)c2C)cc1OC` it is inactive: 16.9%; for `Cc1cc(OCC(=O)Nc2ccc(C(=O)OC3CCCCC3)cc2)cc(C)c1Cl` it is inactive: -3.13%.
In the case of `COc1ccc2c(c1)CC(C(=O)NCc1ccc(F)cc1)CO2` (centres undefined), the activation is inactive: -7.5%.
The figure for `CCc1ccc(NC(=O)C2CCN(c3nc(-c4ccc(OC)cc4)no3)CC2)cc1` is inactive: -7.22%; for `CCOc1ccc2nc(N3CCN(C(=O)c4ccc5c(c4)CCCC5)CC3)sc2c1` it is inactive: -2.68%.
The figure for `Cc1ccc(-c2cc(-c3ccc4c(c3)NC(=O)CO4)nc3c2COc2ccccc2-3)cc1` is inactive: -22.7%; for `Cc1ccc2c(c1)C(=O)OC(C(=O)Nc1ncc(Cc3ccccc3Cl)s1)C2` (centres undefined) it is inactive: 1.79%; for `Cc1ccc(C(=O)Nc2c(C(=O)NC(C)(C)C)oc3ccccc23)cc1` it is inactive: -10.2%.
Regarding `CCOc1ccc2c(c1)c(=O)c(C(=O)c1ccccc1)cn2Cc1ccccc1`, the activation is inactive: -1.12%.
For the compound `Cc1c(CCC(=O)NCCc2ccccc2)c(=O)oc2cc(O)ccc12`, the activation is inactive: 37.2%.
The figure for `COc1ccc2c(c1)c1c(c(=O)n(-c3ccc(F)c(Cl)c3)c(=O)n1Cc1cccc(C)c1)n2C` is inactive: -8.31%.
For `Cc1ccc(-n2nc(C)c3nc(CCC(=O)Nc4cccc(C)c4C)c(=O)n(C)c32)cc1`, the activation is inactive: 0.322%.
For `Cc1cc(C)c2c(CC(=O)Nc3ccc(F)cc3)coc2c1` the value was inactive: 23.2%.
As for `CCCS(=O)(=O)c1nc(S(=O)(=O)c2ccc(C)cc2)c(N(CC)CC)s1`, the activation is inactive: -34.1%.
The figure for `CCOC(=O)c1ccc(NC(=O)CSc2c(C(C)C)cnc3c2c(=O)n(C)c(=O)n3C)cc1` is inactive: -21.8%; for `COc1ccc(CNC(=O)Cn2nc3c(cc2=O)CCCC3)cc1` it is inactive: 1.35%.
For `Cc1cccc(N2C(=O)N(Cc3cc(=O)n4ccccc4n3)c3ccccc3S2(=O)=O)c1` the value was inactive: -9.45%.
The figure for `CCc1ccc(NS(=O)(=O)c2ccc3[nH]cc(C(=O)NCCc4cccc(C)c4)c(=O)c3c2)cc1` is inactive: -17.3%; for `COc1ccc(-n2cc(C(=O)OCc3ccc(F)c(F)c3)c3ccccc3c2=O)cc1` it is inactive: -7.26%.
With `Cc1ccc(OC(=O)c2cc(-c3ccc(Cl)cc3)on2)c(C)c1`, the activation was inactive: 11.8%.
Regarding `Cc1cccc(N2CCN(C(=O)CCc3c(C)nc4c(c3C)c(=O)n(C)c(=O)n4C)CC2)c1C`, the activation is inactive: -2.03%.
For `COc1ccc(C2C(=O)N(C3CCCCC3)CC(=O)N2CCC2=CCCCC2)cc1` (centres undefined) the value was inactive: -33.1%; for `O=C(NC1(C(F)(F)F)C(=O)Nc2c1c(=O)[nH]c(=O)n2-c1ccc(F)cc1)c1ccccc1` (centres undefined), inactive: 6.59%.
`CCOc1ccc(-n2c(=O)c3sc4ccccc4c3n(Cc3cccc(C)c3)c2=O)cc1`: the activation was inactive: 4.71%.
The figure for `CC1CCC(NC(=O)c2ccc3c(c2)N(Cc2ccccc2F)C(=O)c2ccccc2S3=O)CC1` (centres undefined) is inactive: -6.15%.
Consider `CCOc1ccc(CCNC(=O)Cn2ncn3c(cc4sc(C)cc43)c2=O)cc1OCC`, for which the activation is inactive: -15.2%.
The figure for `Clc1ccc(-c2cn3ncsc3n2)cc1` is inactive: 1.48%; for `COc1ccc2c(c1)sc1ncc(C(=O)NCc3ccc(Cl)cc3)c(=O)n12` it is inactive: 1.07%.
As to `CCN1CCN(c2oc(/C=C/c3ccc(OC)c(OC)c3)nc2C#N)CC1`, the activation was inactive: -9.29%.
Turning to `O=C(NCc1ccccc1)C(=O)NCC(c1ccc2c(c1)OCO2)N1CCOCC1` (centres undefined), the activation is inactive: -16.3%.
For `COc1ccccc1NC(=O)c1cc(S(=O)(=O)NCCc2ccccc2)ccc1F` the value was inactive: -25%.
The figure for `Cc1ccc(CN2CCSc3ccc(C(=O)N4CCN(c5ccc(Cl)cc5)CC4)cc32)cc1` is inactive: -35.2%; for `COc1cccc(CNC(=O)C(NS(=O)(=O)c2cccs2)C(C)C)c1` (centres undefined) it is inactive: 8.42%.
For `COc1cccc(CNC(=O)c2ccc3nc(N4CCCCC4)sc3c2)c1OC` the value was inactive: 9.25%; for `CCCCN1C(=O)c2[nH]nc(-c3ccccc3O)c2C1c1cc(Br)c(O)c(OC)c1` (centres undefined), inactive: -12%; for `C[C@]12CCC(=O)C=C1CC[C@@H]1[C@@H]2[C@@H](O)C[C@@]2(C)[C@H]1CC[C@]2(O)C(=O)CO`, inactive: -0.779% and inactive: 11%.
`O=c1c2cccnc2n(Cc2ccccc2F)c(=O)n1Cc1ccc(F)cc1`: the activation is inactive: -30.5%.
For the compound `COc1ccc(NC(=O)Cn2c3ncccc3c(=O)n2-c2ccc(C)c(C)c2)c(OC)c1`, the activation was inactive: -13.6%.
For `CCCCc1nn2c(=O)cc(COC(=O)c3ccc(NC(=O)c4ccccc4Cl)cc3)nc2s1` the value was inactive: -25.2%.
For `CCOCCCNC(=O)C(c1ccc(OC)cc1)N(Cc1ccc2c(c1)OCO2)C(=O)c1ccc(NC(C)=O)cc1` (centres undefined) the value was inactive: -2.59%; for `Nc1nc2ccccc2n1Cc1ccc(F)cc1`, inactive: 48%; for `COc1ccc(CCNC(=O)CCCn2c(=O)c3ccccc3n(Cc3cccc(Cl)c3)c2=O)cc1OC`, inactive: 6.2%.
For `CCOc1ccc(N(C(=O)CC(C)C)S(=O)(=O)c2ccc3c(c2)oc(=O)n3C)cc1` the value was inactive: -15.1%.
Take `Cc1ccc(-c2nc3scc(CCNC(=O)Cc4ccc(Cl)cc4)n3n2)cc1`: the activation was inactive: 32.9%.
On to `CCC(=O)Nc1c(C(=O)N2CCN(c3ccc(F)cc3)CC2)oc2ccccc12`, for which the activation was inactive: -0.474%.
The figure for `COc1ccc(CCNS(=O)(=O)c2ccc3c(c2)CC(C)N3C(=O)C2CCC2)cc1OC` (centres undefined) is inactive: 30.2%.
